This is an account of results in the supplement of paper PMC12423691.

To fix the notation:
B1: AR, P10275 (protein)
chain: MEVQLGLGRVYPRPPSKTYRGAFQNLFQSVREVIQNPGPRHPEAASAAPPGASLLLLQQQQQQQQQQQQQQQQQQQQQQQETSPRQQQQQQGEDGSPQAHRRGPTGYLVLDEEQQPSQPQSALECHPERGCVPEPGAAVAASKGLPQQLPAPPDEDDSAAPSTLSLLGPTFPGLSSCSADLKDILSEASTMQLLQQQQQEAVSEGSSSGRAREASGAPTSSKDNYLGGTSTISDNAKELCKAVSVSMGLGVEALEHLSPGEQLRGDCMYAPLLGVPPAVRPTPCAPLAECKGSLLDDSAGKSTEDTAEYSPFKGGYTKGLEGESLGCSGSAAAGSSGTLELPSTLSLYKSGALDEAAAYQSRDYYNFPLALAGPPPPPPPPHPHARIKLENPLDYGSAWAAAAAQCRYGDLASLHGAGAAGPGSGSPSAAASSSWHTLFTAEEGQLYGPCGGGGGGGGGGGGGGGGGGGGGGGEAGAVAPYGYTRPPQGLAGQESDFTAPDVWYPGGMVSRVPYPSPTCVKSEMGPWMDSYSGPYGDMRLETARDHVLPIDYYFPPQKTCLICGDEASGCHYGALTCGSCKVFFKRAAEGKQKYLCASRNDCTIDKFRRKNCPSCRLRKCYEAGMTLGARKLKKLGNLKLQEEGEASSTTSPTEETTQKLTVSHIEGYECQPIFLNVLEAIEPGVVCAGHDNNQPDSFAALLSSLNELGERQLVHVVKWAKALPGFRNLHVDDQMAVIQYSWMGLMVFAMGWRSFTNVNSRMLYFAPDLVFNEYRMHKSRMYSQCVRMRHLSQEFGWLQITPQEFLCMKALLLFSIIPVDGLKNQKFFDELRMNYIKELDRIIACKRKNPTSCSRRFYQLTKLLDSVQPIARELHQFTFDLLIKSHMVSVDFPEMMAEIISVQVPKILSGKVKPIYFHTQ
B2: ZNF280A, P59817 (protein)
chain: MGDIFLCKKVESPKKNLRESKQREEDDEDPDLIYVGVEHVHRDAEVLFVGMISNSKPVVSNILNRVTPGSNSRRKKGHFRQYPAHVSQPANHVTSMAKAIMPVSLSEGRSTDSPVTMKSSSEPGYKMSSPQVVSPSSSDSLPPGTQCLVGAMVSGGGRNESSPDSKRLSTSDINSRDSKRVKLRDGIPGVPSLAVVPSDMSSTISTNTPSQGICNSSNHVQNGVTFPWPDANGKAHFNLTDPERASESALAMTDISSLASQNKTFDPKKENPIVLLSDFYYGQHKGDGQPEQKTHTTFKCLSCVKVLKNIKFMNHMKHHLEFEKQRNDSWEDHTTCQHCHRQFPTPFQLQCHIDSVHIAMGPSAVCKICELSFETDQVLLQHMKDHHKPGEMPYVCQVCHYRSSVFADVETHFRTCHENTKNLLCLFCLKLFKTAIPYMNHCWRHSRRRVLQCSKCRLQFLTLKEEIEHKTKDHQTFKKPEQLQGLPSETKVIIQTSVQPGSSGMASVIVSNTDPQSSPVKTKKKTAMNTRDSRLPCSKDSS
B3: ESRRA, P11474 (protein)
chain: MSSQVVGIEPLYIKAEPASPDSPKGSSETETEPPVALAPGPAPTRCLPGHKEEEDGEGAGPGEQGGGKLVLSSLPKRLCLVCGDVASGYHYGVASCEACKAFFKRTIQGSIEYSCPASNECEITKRRRKACQACRFTKCLRVGMLKEGVRLDRVRGGRQKYKRRPEVDPLPFPGPFPAGPLAVAGGPRKTAAPVNALVSHLLVVEPEKLYAMPDPAGPDGHLPAVATLCDLFDREIVVTISWAKSIPGFSSLSLSDQMSVLQSVWMEVLVLGVAQRSLPLQDELAFAEDLVLDEEGARAAGLGELGAALLQLVRRLQALRLEREEYVLLKALALANSDSVHIEDAEAVEQLREALHEALLEYEAGRAGPGGGAERRRAGRLLLTLPLLRQTAGKVLAHFYGVKLEGKVPMHKLFLEMLEAMMD
B4: HNF4A, P41235 (protein)
chain: MRLSKTLVDMDMADYSAALDPAYTTLEFENVQVLTMGNDTSPSEGTNLNAPNSLGVSALCAICGDRATGKHYGASSCDGCKGFFRRSVRKNHMYSCRFSRQCVVDKDKRNQCRYCRLKKCFRAGMKKEAVQNERDRISTRRSSYEDSSLPSINALLQAEVLSRQITSPVSGINGDIRAKKIASIADVCESMKEQLLVLVEWAKYIPAFCELPLDDQVALLRAHAGEHLLLGATKRSMVFKDVLLLGNDYIVPRHCPELAEMSRVSIRILDELVLPFQELQIDDNEYAYLKAIIFFDPDAKGLSDPGKIKRLRSQVQVSLEDYINDRQYDSRGRFGELLLLLPTLQSITWQMIEQIQFIKLFGMAKIDNLLQEMLLGGSPSDAPHAHHPLHPHLMQEHMGTNVIVANTMPTHLSNGQMCEWPRPRGQAATPETPQPSPPGGSGSEPYKLLPGAVATIVKPLSAIPQPTITKQEVI
B5: STAT4, Q14765 (protein)
chain: MSQWNQVQQLEIKFLEQVDQFYDDNFPMEIRHLLAQWIENQDWEAASNNETMATILLQNLLIQLDEQLGRVSKEKNLLLIHNLKRIRKVLQGKFHGNPMHVAVVISNCLREERRILAAANMPVQGPLEKSLQSSSVSERQRNVEHKVAAIKNSVQMTEQDTKYLEDLQDEFDYRYKTIQTMDQSDKNSAMVNQEVLTLQEMLNSLDFKRKEALSKMTQIIHETDLLMNTMLIEELQDWKRRQQIACIGGPLHNGLDQLQNCFTLLAESLFQLRRQLEKLEEQSTKMTYEGDPIPMQRTHMLERVTFLIYNLFKNSFVVERQPCMPTHPQRPLVLKTLIQFTVKLRLLIKLPELNYQVKVKASIDKNVSTLSNRRFVLCGTNVKAMSIEESSNGSLSVEFRHLQPKEMKSSAGGKGNEGCHMVTEELHSITFETQICLYGLTIDLETSSLPVVMISNVSQLPNAWASIIWYNVSTNDSQNLVFFNNPPPATLSQLLEVMSWQFSSYVGRGLNSDQLHMLAEKLTVQSSYSDGHLTWAKFCKEHLPGKSFTFWTWLEAILDLIKKHILPLWIDGYVMGFVSKEKERLLLKDKMPGTFLLRFSESHLGGITFTWVDHSESGEVRFHSVEPYNKGRLSALPFADILRDYKVIMAENIPENPLKYLYPDIPKDKAFGKHYSSQPCEVSRPTERGDKGYVPSVFIPISTIRSDSTEPHSPSDLLPMSPSVYAVLRENLSPTTIETAMKSPYSAE
B6: PCGF2, P35227 (protein)
chain: MHRTTRIKITELNPHLMCALCGGYFIDATTIVECLHSFCKTCIVRYLETNKYCPMCDVQVHKTRPLLSIRSDKTLQDIVYKLVPGLFKDEMKRRRDFYAAYPLTEVPNGSNEDRGEVLEQEKGALSDDEIVSLSIEFYEGARDRDEKKGPLENGDGDKEKTGVRFLRCPAAMTVMHLAKFLRNKMDVPSKYKVEVLYEDEPLKEYYTLMDIAYIYPWRRNGPLPLKYRVQPACKRLTLATVPTPSEGTNTSGASECESVSDKAPSPATLPATSSSLPSPATPSHGSPSSHGPPATHPTSPTPPSTASGATTAANGGSLNCLQTPSSTSRGRKMTVNGAPVPPLT
B7: TAF7, Q15545 (protein)
chain: MSKSKDDAPHELESQFILRLPPEYASTVRRAVQSGHVNLKDRLTIELHPDGRHGIVRVDRVPLASKLVDLPCVMESLKTIDKKTFYKTADICQMLVSTVDGDLYPPVEEPVASTDPKASKKKDKDKEKKFIWNHGITLPLKNVRKRRFRKTAKKKYIESPDVEKEVKRLLSTDAEAVSTRWEIIAEDETKEAENQGLDISSPGMSGHRQGHDSLEHDELREIFNDLSSSSEDEDETQHQDEEDINIIDTEEDLERQLQDKLNESDEQHQENEGTNQLVMGIQKQIDNMKGKLQETQDRAKRQEDLIMKVENLALKNRFQAVLDELKQKEDREKEQLSSLQEELESLLEK
B8: DNAJA3, Q96EY1 (protein)
chain: MAARCSTRWLLVVVGTPRLPAISGRGARPPREGVVGAWLSRKLSVPAFASSLTSCGPRALLTLRPGVSLTGTKHNPFICTASFHTSAPLAKEDYYQILGVPRNASQKEIKKAYYQLAKKYHPDTNKDDPKAKEKFSQLAEAYEVLSDEVKRKQYDAYGSAGFDPGASGSQHSYWKGGPTVDPEELFRKIFGEFSSSSFGDFQTVFDQPQEYFMELTFNQAAKGVNKEFTVNIMDTCERCNGKGNEPGTKVQHCHYCGGSGMETINTGPFVMRSTCRRCGGRGSIIISPCVVCRGAGQAKQKKRVMIPVPAGVEDGQTVRMPVGKREIFITFRVQKSPVFRRDGADIHSDLFISIAQALLGGTARAQGLYETINVTIPPGTQTDQKIRMGGKGIPRINSYGYGDHYIHIKIRVPKRLTSRQQSLILSYAEDETDVEGTVNGVTLTSSGGSTMDSSAGSKARREAGEDEEGFLSKLKKMFTS
B9: ZNF75D, P51815 (protein)
chain: MAMRELNADSCSSPQMGAMWETSGSVKENSSQSKKYSTKIENLGPESACRHFWSFRYHEATGPLETISQLQKLCHQWLRPEIHSKEQILEMLVLEQFLSILPKETQNWVQKHHPQNVKQALVLVEFLQREPDGTKNEVTAHELGKEAVLLGGTAVAPGFKWKPAEPQPMGVFQKEYWNTYRVLQEQLGWNTHKETQPVYERAVHDQQMLALSEQKRIKHWKMASKLILPESLSLLTFEDVAVYFSEEEWQLLNPLEKTLYNDVMQDIYETVISLGLKLKNDTGNDHPISVSTSEIQTSGCEVSKKTRMKIAQKTMGRENPGDTHSVQKWHRAFPRKKRKKPATCKQELPKLMDLHGKGPTGEKPFKCQECGKSFRVSSDLIKHHRIHTGEKPYKCQQCDRRFRWSSDLNKHFMTHQGIKPYRCSWCGKSFSHNTNLHTHQRIHTGEKPFKCDECGKRFIQNSHLIKHQRTHTGEQPYTCSLCKRNFSRRSSLLRHQKLHRRREACLVSPN

The list shows a part of the results. Binding of human transcription factors and regulators to the viral nucleoprotein by AlphaScreen, crude cell-free proteins, amounts not normalised, one pass. Fold of the Venus control; higher = more signal. No active / inactive call. Single-pass screen; sequences are the whole Swiss-Prot entries looked up by name.

The experiment deals with nucleoprotein N of Crimean-Congo hemorrhagic fever virus. The experiment can be described thus: AlphaScreen luminescence signal relative to Venus negative control (fold); higher = stronger binding to CCHFV N. As to the method:
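AlphaScreen binding of cell-free made, FLAG-GST-tagged human transcription factors and regulators (crude translation products) to biotinylated N protein; signal as fold of the FLAG-GST-Venus control. One pass.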
B1 showed an AlphaScreen luminescence signal of 1.72. Turning to B2, the AlphaScreen luminescence signal was found to be 3.4. In the case of B3, the AlphaScreen luminescence signal amounted to 3.35. For B4, the AlphaScreen luminescence signal was found to be 25.7. Regarding B5, the AlphaScreen luminescence signal stood at 2.47.

The molecule B6 displayed an AlphaScreen luminescence signal of 1.4. With B7, the AlphaScreen luminescence signal was determined as 1.86. The same measure for B8: 2.37. B9 displayed an AlphaScreen luminescence signal of 3.72.
